{"source": "ChEMBL document CHEMBL5724801", "about": "“EUbOPEN Chemogenomics Library - Multiplex” (2024)", "format_in_all_cases": "toxicity, cell-based", "key": {"HEK-293T": {"tested_on": "HEK-293T", "experiment": "Multiplex assay against HEK293T", "conditions": "human", "outline": "(§1)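 Four dyes were applied at seeding to live cells: Hoechst33342, BioTracker Green Microtubule Cytoskeleton Dye, MitoTracker Red and Annexin V Alexa Fluor 680. Imaging after compound addition used a CQ1 microscope at 37°C and 5% CO2. CellPathfinder machine-learning gating then sorted cells into Hoechst high-intensity objects or normal cells, normal cells into healthy, pyknosed or fragmented nuclei, and pyknosed cells into mitotic or apoptotic, with tubulin, mitochondrial-mass and membrane-permeability phenotypes given as per cents of healthy-nucleus cells.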"}, "Fibroblast": {"tested_on": "Fibroblast", "experiment": "Multiplex assay against human fibroblast", "outline": "as §1"}, "U2OS": {"tested_on": "U2OS", "experiment": "Multiplex assay against U2OS", "conditions": "human", "outline": "as §1"}, "[1]": {"conditions": "12 h, 10 µM, compound concentration 10 uM"}, "[2]": {"conditions": "24 h, 10 µM, compound concentration 10 uM"}, "[3]": {"conditions": "48 h, 10 µM, compound concentration 10 uM"}, "[4]": {"conditions": "12 h, 1 µM, compound concentration 1 uM"}, "[5]": {"conditions": "24 h, 1 µM, compound concentration 1 uM"}, "[6]": {"conditions": "48 h, 1 µM, compound concentration 1 uM"}}, "note": "The source holds more than one record for some entries. This is not the full list of results. An entry can have further records. The records of an entry repeat one measurement in other runs, samples, wells, individuals or studies.", "data": [{"molecule": "COc1cc(NC(=O)CCN2CCC(OC(=O)Nc3ccccc3-c3ccccc3)CC2)c(Cl)cc1CNC[C@H](O)c1ccc(O)c2[nH]c(=O)ccc12", "note": "[BATEFENTEROL]", "values": [{"measurement": "Population Fragmented Nuclei (%)", "setting": "HEK-293T; [1]", "result": "90% and 5%"}, {"measurement": "Population Healthy Nuclei (%)", "setting": "HEK-293T; [1]", "result": "0% and 72%"}, {"measurement": "Population Mitochondria Different-Phenotype (%)", "setting": "HEK-293T; [1]", "result": "0% and 87%"}, {"measurement": "Population Mitotic Cells (%)", "setting": "HEK-293T; [1]", "result": "0% and 47%"}, {"measurement": "Population Tubulin-Different-Phenotype (%)", "setting": "HEK-293T; [1]", "result": "0% and 67%"}, {"measurement": "Total Cell Count", "setting": "HEK-293T; [1]", "result": "16 and 303"}, {"measurement": "Population Apoptotic (%)", "setting": "HEK-293T; [2]", "result": "0% and 56%"}, {"measurement": "Population Fragmented Nuclei (%)", "setting": "HEK-293T; [2]", "result": "87% and 6%"}, {"measurement": "Population Healthy Nuclei (%)", "setting": "HEK-293T; [2]", "result": "12% and 73%"}, {"measurement": "Population Hoechst High Intensity Objects (%)", "setting": "HEK-293T; [2]", "result": "33% and 7%"}, {"measurement": "Population Mitotic Cells (%)", "setting": "HEK-293T; [2]", "result": "0% and 43%"}, {"measurement": "Total Cell Count", "setting": "HEK-293T; [2]", "result": "12 and 357"}, {"measurement": "Population Fragmented Nuclei (%)", "setting": "HEK-293T; [3]", "result": "58% and 11%"}, {"measurement": "Population Healthy Nuclei (%)", "setting": "HEK-293T; [3]", "result": "25% and 76%"}, {"measurement": "Population Mitotic Cells (%)", "setting": "HEK-293T; [3]", "result": "0% and 42%"}, {"measurement": "Total Cell Count", "setting": "HEK-293T; [3]", "result": "13 and 427"}, {"measurement": "Population Pyknosed Nuclei (%)", "setting": "Fibroblast; [3]", "result": "22% and 6%"}]}, {"molecule": "CC(N)C1CCC(C(=O)Nc2ccncc2)CC1", "note": "(stereo unspecified)", "values": [{"measurement": "Population Mitochondria Different-Phenotype (%)", "setting": "HEK-293T; [4]", "result": "29.21% and 7.32%"}, {"measurement": "Population Tubulin-Different-Phenotype (%)", "setting": "HEK-293T; [4]", "result": "1.87% and 19.51%"}, {"measurement": "Population Apoptotic (%)", "setting": "HEK-293T; [1]", "result": "3.63% and 16.67%"}, {"measurement": "Population Tubulin-Different-Phenotype (%)", "setting": "HEK-293T; [1]", "result": "6.29% and 38.3%"}, {"measurement": "Total Cell Count", "setting": "HEK-293T; [1]", "result": "501 and 158"}, {"measurement": "Total Cell Count", "setting": "HEK-293T; [5]", "result": "623 and 180"}, {"measurement": "Total Cell Count", "setting": "HEK-293T; [2]", "result": "730 and 191"}, {"measurement": "Population Tubulin-Different-Phenotype (%)", "setting": "HEK-293T; [6]", "result": "0.63% and 14.69%"}, {"measurement": "Total Cell Count", "setting": "HEK-293T; [6]", "result": "1286 and 271"}, {"measurement": "Population Apoptotic (%)", "setting": "HEK-293T; [3]", "result": "3.11% and 18.64%"}, {"measurement": "Total Cell Count", "setting": "HEK-293T; [3]", "result": "1515 and 220"}, {"measurement": "Population Apoptotic (%)", "setting": "Fibroblast; [4]", "result": "5.88% and 17.65%"}, {"measurement": "Population Pyknosed Nuclei (%)", "setting": "Fibroblast; [4]", "result": "23.08% and 7.33%"}, {"measurement": "Population Pyknosed Nuclei (%)", "setting": "Fibroblast; [2]", "result": "15.35% and 4.97%"}, {"measurement": "Population Mitochondria Different-Phenotype (%)", "setting": "Fibroblast; [6]", "result": "12.84% and 2.63%"}, {"measurement": "Population Mitotic Cells (%)", "setting": "Fibroblast; [6]", "result": "69.23% and 16.67%"}, {"measurement": "Population Mitochondria Different-Phenotype (%)", "setting": "Fibroblast; [3]", "result": "14.98% and 4.24%"}]}, {"molecule": "Cc1ccc(OCC(O)C(C)NC(C)C)c2c1CCC2.Cl", "note": "(stereo unspecified)", "values": [{"measurement": "Population Hoechst High Intensity Objects (%)", "setting": "HEK-293T; [1]", "result": "3% and 18%"}, {"measurement": "Population Mitotic Cells (%)", "setting": "U2OS; [4]", "result": "36% and 9%"}]}, {"molecule": "C[C@H](NC(=O)CNC(=O)c1cccc(Cl)c1)c1ccccc1", "values": [{"measurement": "Population Mitotic Cells (%)", "setting": "U2OS; [2]", "result": "9% and 28%"}]}, {"molecule": "Cl.N=C(N)NC(=O)Cc1c(Cl)cccc1Cl", "note": "[GUANFACINE HYDROCHLORIDE]", "values": [{"measurement": "Population Tubulin-Different-Phenotype (%)", "setting": "Fibroblast; [2]", "result": "19% and 58%"}]}, {"molecule": "CC(C)[C@H](C(=O)Nc1ccc(C(=O)NO)cc1)c1ccccc1", "note": "[AR-42]", "values": [{"measurement": "Population Tubulin-Different-Phenotype (%)", "setting": "HEK-293T; [4]", "result": "5.71% and 28.57%"}, {"measurement": "Population Healthy Nuclei (%)", "setting": "HEK-293T; [1]", "result": "53.33% and 17.02%"}, {"measurement": "Population Mitochondria Different-Phenotype (%)", "setting": "HEK-293T; [1]", "result": "25.69% and 3.12%"}, {"measurement": "Population Mitotic Cells (%)", "setting": "Fibroblast; [3]", "result": "68.52% and 10.42%"}, {"measurement": "Population Tubulin-Different-Phenotype (%)", "setting": "Fibroblast; [3]", "result": "2.04% and 14.52%"}]}, {"molecule": "O=c1nc2[nH]c3ccccc3nc-2c(=O)[nH]1", "note": "[ALLOXAZINE]", "values": [{"measurement": "Population Mitochondria Different-Phenotype (%)", "setting": "Fibroblast; [3]", "result": "3% and 17%"}]}, {"molecule": "CCCCC1=NC2(CCCC2)C(=O)N1Cc1ccc(-c2ccccc2-c2nnn[nH]2)cc1", "note": "[IRBESARTAN]", "values": [{"measurement": "Population Fragmented Nuclei (%)", "setting": "Fibroblast; [2]", "result": "9% and 36%"}]}, {"molecule": "Cn1cc(C(=O)OCC2CCN(CCNS(C)(=O)=O)CC2)c2ccccc21", "values": [{"measurement": "Population Mitotic Cells (%)", "setting": "U2OS; [2]", "result": "7% and 35%"}, {"measurement": "Population Mitotic Cells (%)", "setting": "U2OS; [6]", "result": "8% and 42%"}, {"measurement": "Population Fragmented Nuclei (%)", "setting": "U2OS; [3]", "result": "30% and 9%"}]}, {"molecule": "COc1ccc2c(c1OCc1ccccc1)C[C@@H](C(=O)O)N(C(=O)C(c1ccccc1)c1ccccc1)C2", "note": "[OLODANRIGAN]", "values": [{"measurement": "Population Mitotic Cells (%)", "setting": "U2OS; [5]", "result": "12% and 44%"}, {"measurement": "Population Mitotic Cells (%)", "setting": "U2OS; [2]", "result": "16% and 50%"}]}, {"molecule": "CCCCC[C@H](O)/C=C/[C@H]1[C@H](O)CC(=O)[C@@H]1CCCCCCC(=O)O", "note": "[ALPROSTADIL]", "values": [{"measurement": "Population Tubulin-Different-Phenotype (%)", "setting": "Fibroblast; [4]", "result": "12% and 38%"}, {"measurement": "Population Fragmented Nuclei (%)", "setting": "Fibroblast; [1]", "result": "7% and 25%"}, {"measurement": "Population Hoechst High Intensity Objects (%)", "setting": "Fibroblast; [1]", "result": "5% and 16%"}, {"measurement": "Population Hoechst High Intensity Objects (%)", "setting": "Fibroblast; [2]", "result": "2% and 13%"}, {"measurement": "Population Tubulin-Different-Phenotype (%)", "setting": "Fibroblast; [2]", "result": "19% and 59%"}, {"measurement": "Population Hoechst High Intensity Objects (%)", "setting": "Fibroblast; [3]", "result": "2% and 16%"}, {"measurement": "Population Membrane Permeable-Phenotype (%)", "setting": "Fibroblast; [3]", "result": "1% and 13%"}]}, {"molecule": "CC[C@@H](C)Nc1nc(C)nc2c(-c3ccc(OC)nc3C)c(C)nn12", "note": "[PEXACERFONT]", "values": [{"measurement": "Population Membrane Permeable-Phenotype (%)", "setting": "Fibroblast; [4]", "result": "2% and 15%"}, {"measurement": "Population Membrane Permeable-Phenotype (%)", "setting": "Fibroblast; [2]", "result": "2% and 20%"}, {"measurement": "Population Membrane Permeable-Phenotype (%)", "setting": "Fibroblast; [6]", "result": "1% and 26%"}, {"measurement": "Population Mitotic Cells (%)", "setting": "Fibroblast; [3]", "result": "12% and 47%"}]}]}
